This list holds what a sample rich in strong results left over.
Each compound was assayed against cAMP-dependent protein kinase catalytic subunit alpha (Homo sapiens) (UniProt P17612). Conditions: at 1 µM.
`O=C1NC(=O)C(c2ccccc2)=C1Nc1ccccc1` gave an inhibition of 3.06%. In the case of `CC(C)(C)c1ccc(Oc2nccc(-c3c(-c4ccc(F)cc4)ncn3C3CCNCC3)n2)cc1`, the inhibition was 20.7%. In the case of `Cc1cccc(Oc2nccc(-c3c(-c4ccc(F)cc4)ncn3C3CCNCC3)n2)c1C`, the inhibition was 17.5%. For `Fc1ccc(-c2ncn(C3CCNCC3)c2-c2ccnc(Oc3cccc(C(F)(F)F)c3)n2)cc1`, the inhibition was 6.59%. Work on `Fc1ccc(-c2ncn(C3CCNCC3)c2-c2ccnc(Oc3cccc(F)c3)n2)cc1` yielded an inhibition of 35.4%. `O=C1NC(=O)C(c2ccccc2Cl)=C1Nc1cc(Cl)c(O)c(Cl)c1` showed an inhibition of 2.86%. Work on `CS(=O)(=O)c1ccc(Oc2nccc(-c3c(-c4ccc(F)cc4)ncn3C3CCNCC3)n2)cc1` yielded an inhibition of 3.67%. For `COc1ccccc1C1=C(Nc2ccccc2)C(=O)NC1=O`, the inhibition was 1.88%. In the case of `COc1ccccc1Oc1nccc(-c2c(-c3ccc(F)cc3)ncn2C2CCNCC2)n1`, the inhibition was 6.69%. `NC(=O)CCc1ccccc1Oc1nccc(-c2c(-c3ccc(F)cc3)ncn2C2CCNCC2)n1` gave an inhibition of 5.64%. Work on `Fc1ccc(Oc2nccc(-c3c(-c4ccc(F)cc4)ncn3C3CCNCC3)n2)cc1` yielded an inhibition of 15.2%. For `O=C1NC(=O)C(c2cccc([N+](=O)[O-])c2)=C1Nc1cc(Cl)c(O)c(Cl)c1`, the inhibition was 4.75%. `Fc1ccc(-c2ncn(C3CCNCC3)c2-c2ccnc(Oc3ccc(Cl)cc3)n2)cc1` showed an inhibition of 44.7%. Compound `O=C(O)c1ccc(Oc2nccc(-c3c(-c4ccc(F)cc4)ncn3C3CCNCC3)n2)cc1` has an inhibition of 10.3%.
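Further: mean percent inhibition of PKA.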
